The campaign covered roughly 310,000 compounds. About 18,000 (5.8%) were called active. Inconclusive results, whose numbers are uncertain, are shown with a selection of clear calls. The call rests on the fitted dose curve; in most records, active means well fitted inhibition curve with a large enough effect; inconclusive means small, poorly fitted or top-dose-only effect, or another doubt; inactive means no such curve, though single readings can be large or run the other way. Potencies of inconclusive entries are left out as doubtful fits.
Experiment: Primary qHTS for delayed death inhibitors of the malarial parasite plastid, 48 hour incubation
Conditions: P. falciparum luciferase growth in erythrocytes; series mostly up to 28.7 µM
Summary of the method: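 Cell-based growth assay: transgenic P. falciparum expressing firefly luciferase, cultured in red cells within RPMI 1640 containing 0.5% w/v Albumax, 24 mM bicarbonate and gentamycin. A drop in luciferase activity indicates inhibition.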
Potency means the concentration at half of the fitted maximal effect; tags describe the fitted curve by direction and shape.

| SMILES | Potency |
| --- | --- |
| Cc1nonc1OCCNC(=O)C12CC3CC(CC(C3)C1)C2 | inactive |
| O=C(/C=C/c1cccc([N+](=O)[O-])c1)NCc1ccccc1 | inconclusive [inhibitor, single point] |
| CC(=O)c1cccc(N(C(=O)c2ccco2)C(C(=O)NC2CCCC2)c2ccc(N3CCOCC3)cc2)c1 (centres undefined) | inconclusive [inhibitor, partial curve, poor fit] |
| CCCCOc1ccc(C(=O)N/C(=C\c2ccc(OC)cc2)C(=O)OCc2ccco2)cc1 | inconclusive [inhibitor, single point] |
| NC(=O)C1(N2CCCCC2)CCN(C(=O)NC2CCCCC2)CC1 | inactive |
| COc1cc(NC(=O)c2cc(S(=O)(=O)N3CCCCC3)c[nH]2)cc(OC)c1 | inconclusive [inhibitor, full curve, poor fit] |
| Cc1cc(C)n(CCCNC(=O)C(C)(C)Oc2ccc(Cl)cc2)n1 | inconclusive [inhibitor, single point] |
| COc1ccc(-c2nnc(N)s2)cc1 | inactive |
| CCc1ccc(-c2cn(C3CCCCC3)c(=S)[nH]2)cc1 | inactive |
| O=C(c1ccc(F)cc1)C(CCCCCC(CN1CCOCC1)C(=O)c1ccc(F)cc1)CN1CCOCC1 (centres undefined) | inconclusive [inhibitor, single point] |
| CCCCCCSc1ccc([C@H]2N[C@@](CC(C)C)(C(=O)OC)[C@H]3C(=O)N(C)C(=O)[C@@H]23)cc1OC | active: 6.57 µM |
| CCOC(=O)C1(Cc2cccc(Cl)c2)CCCN(C(=O)c2ccoc2C)C1 (centres undefined) | inconclusive [inhibitor, partial curve] |
| O=S(=O)(NC1CCCCC1NS(=O)(=O)c1ccc(F)cc1)c1ccc(F)cc1 (centres undefined) | inconclusive [inhibitor, partial curve, poor fit] |
| CCN(CC)CC(=O)Nc1sc2c(c1C(=O)c1ccccc1C)CCC2 | inconclusive [inhibitor, full curve] |
| CCOc1ccc(NC(=O)c2c[nH]n3c(=O)cc(C4CCN(C(=O)OC(C)(C)C)CC4)nc23)cc1 | inconclusive [inhibitor, partial curve] |
| CN(CC(=O)NCCN1CCOCC1)S(=O)(=O)c1ccc(F)cc1 | inactive |
| CCOC(=O)c1sc(NC(=O)CN2C(=O)NC3(CC(C)CC(C)(C)C3)C2=O)c(C(=O)OCC)c1C (centres undefined) | active: 8.28 µM |
| O=C(O)c1ccc(NC2=C(n3nnc4ccccc43)C(=O)c3ccccc3C2=O)cc1 | inconclusive [inhibitor, single point] |
| COC(=O)c1ccc(CS(=O)(=O)c2ccc(F)cc2)o1 | inactive |
| COc1ccc(NS(=O)(=O)c2ccc(C)c(C(=O)NC3CCN(Cc4ccccc4)CC3)c2)cc1 | active: 10.4 µM |
| O=C(COC(=O)C1CC2CCCC(C1)C2=O)NNC(=O)c1ccc([N+](=O)[O-])cc1 (centres undefined) | inactive |
| Cc1ccc(N=Cc2ccc[nH]2)c(O)c1 | inactive |
| CCCc1[nH]n(-c2nc3ccccc3s2)c(=O)c1C=NCCCN(CC)CC | inactive |

| SMILES | Potency |
| --- | --- |
| COc1ccc(NC(=O)N(CCO)Cc2cc3c(C)cc(C)cc3[nH]c2=O)cc1 | inconclusive [inhibitor, single point] |
| COc1ccc(/C=N\NC(=O)c2cc(O)c(O)c(O)c2)cc1COc1ccc(C(=O)OCC(C)C)cc1 | active: 2.94 µM |
| CCc1cc2c(=O)n(CC)c(SC(C)C(=O)Nc3c(C)n(C)n(-c4ccccc4)c3=O)nc2s1 (centres undefined) | inconclusive [inhibitor, partial curve, poor fit] |
| CC(C)(C)NC(=O)Nc1ccc(Cn2cc(C(F)(F)F)ccc2=O)cc1 | inconclusive [inhibitor, single point] |
| CC1(CCc2ccc3c(c2)OCO3)NCCc2c1[nH]c1ccccc21 (centres undefined) | active: 10.4 µM |
| CCCC(=O)Nc1nc2ccc(NC(=O)c3ccc(Br)o3)cc2s1 | inconclusive [inhibitor, single point] |
| Cc1noc(C)c1CSCC(=O)Nc1nc2ccc(S(C)(=O)=O)cc2s1 | inactive |
| CCOc1ccc(C2NC(=O)Cc3cc(OC)c(OC)cc32)cc1 (centres undefined) | inactive |
| O=C(Cn1c(C(F)(F)F)nc2ccccc21)OCC(=O)c1c[nH]c2ccccc12 | active: 11.7 µM |
| CC(=O)Nc1ccc(S(=O)(=O)Oc2cccc(N3C(=O)C4CCCCC4C3=O)c2)cc1 (centres undefined) | active: 13.1 µM |
| Cn1c(SCc2nc(-c3ccccc3)no2)nnc1-c1cccs1 | inconclusive [inhibitor, single point] |
| Cc1cc(OCCCn2ccnc2)cc(C(C)C)c1 | inconclusive [inhibitor, partial curve] |
| O=C(Cc1ccccc1)Nc1cc(Cl)ccc1Sc1ccccc1 | inconclusive [inhibitor, partial curve] |
| CC(C)(C)C(=O)Nc1nc2cc3c(cc2s1)OCO3 | inactive |
| CN(C)C(=O)Oc1ccc(OCc2n(C)c3ccccc3[n+]2C)cc1 | inconclusive [inhibitor, partial curve] |
| COc1ccc(OC)c(NC(=O)CS(=O)(=O)c2cn(CC(=O)N3CCOCC3)c3ccccc23)c1 | inconclusive [inhibitor, partial curve, poor fit] |
| COc1ccc(SCCN2CC[C@@H](NC(=O)OCc3ccccc3)CCC2=O)cc1 | inconclusive [inhibitor, single point] |
| CC(C)(C)c1ccc(S(=O)(=O)N2CCN(CC(=O)N3CC(=O)Nc4ccccc43)CC2)cc1 | active: 11.7 µM |
| COc1cc(OC)cc(C(=O)Nc2ccc([N+](=O)[O-])cn2)c1 | inactive |
| Cc1nonc1OCCNCc1c(C(=O)N(C)C)nc2ccc(Cl)cn12 | inconclusive [inhibitor, full curve] |
| N#CC1(NC(=O)COc2ccc(S(=O)(=O)N3CCCC3)cc2[N+](=O)[O-])CCCCC1 | inconclusive [inhibitor, single point] |
| COC(=O)C1CN(C#N)N(c2ccc(Cl)cc2)C12c1ccccc1-c1ccccc12 (centres undefined) | active: 3.29 µM |
| CCc1cccc2c1NC(=O)C2(O)N1CCCC(C)C1 (centres undefined) | inconclusive [inhibitor, partial curve, poor fit] |

| SMILES | Potency |
| --- | --- |
| Cc1cc(N2CCN(C(=O)Nc3ccccc3C#N)CC2)c2ccccc2n1 | inconclusive [inhibitor, full curve] |
| Cc1ccc(NC(=O)c2ccccc2)s1 | inactive |
| Cc1cc(=O)[nH]c(N/N=C/c2c(C)oc3ccccc23)n1 | inconclusive [inhibitor, single point] |
| CC(C)(C)NCCCOc1ccc(Cl)cc1C(C)(C)C | inconclusive [inhibitor, single point] |
| COc1ccc(N2CCN(Cc3csc(C)c3-c3ccc(C)cc3)CC2)cc1 | active: 10.4 µM |
| CCOC(=O)c1sc2nc(C)nc(NCc3ccc(F)cc3)c2c1C | inconclusive [inhibitor, single point] |
| CCOc1ccccc1CNC(=O)C1CCCN(c2ncnc3c2nc2n3CCCCC2)C1 (centres undefined) | inconclusive [inhibitor, partial curve, poor fit] |
| Cc1cccc(OCCCC(=O)Nc2nccs2)c1 | inconclusive [inhibitor, single point] |
| CCOc1ccc2nc(N(Cc3ccccc3)C(=O)CCNC(C)=O)sc2c1 | inactive |
| COc1ccc(C(=O)C(OC(=O)c2ccc(C)c(NC(C)=O)c2)c2ccccc2)cc1 (centres undefined) | inconclusive [inhibitor, single point] |
| CCN(CC)C(=O)c1cccc(NC(=O)c2ccccc2OCc2c(C)noc2C)c1 | inconclusive [inhibitor, single point] |
| Nc1ccc(Nc2nc3ccccc3[nH]2)cc1 | inconclusive [inhibitor, partial curve, poor fit] |
| CCCN(CC(=O)Nc1ccccc1OC)C(=O)CSC(=S)N1CCCC1 | inconclusive [inhibitor, single point] |
| COCCCn1c(=O)c2sccc2n2c(CCCC(=O)NCc3cccc(OC)c3)nnc12 | inconclusive [inhibitor, single point] |
| Cc1ccc(/C=C/C(=O)Nc2ccncc2)o1 | inactive |
| CCOC(=O)CNC(=O)CSc1nc(-c2ccccc2)ns1 | inactive |
| COc1cccc(-c2c(C#N)c(N)nc3c2c(C)nn3-c2ccccc2)c1O | active: 0.37 µM |
| O=C(NC1CN2CCC1CC2)c1ccc(-c2ccc([N+](=O)[O-])cc2)o1 (centres undefined) | active: 1.65 µM |
| COc1ccc(C)cc1NC(=O)CN1CCN(S(=O)(=O)c2ccc3ccccc3c2)CC1 | inconclusive [inhibitor, partial curve, poor fit] |
| COc1cc(CNn2c(C)n[nH]c2=S)cc(Br)c1OCC(=O)NC(C)(C)C | inconclusive [inhibitor, full curve] |
| Cc1ccc(S(=O)(=O)N(C)S(=O)(=O)c2ccc(C)cc2)cc1 | inconclusive [inhibitor, partial curve, poor fit] |
| COC(=O)C1=C(c2cccc(OCc3ccccc3)c2)C[C@@H]2CC[C@H]1N2C(=O)NCCOc1ccccc1Cl | active: 13.1 µM |
| CCn1cc(/C=C(\NC(=O)c2ccc(OC)c(OC)c2)C(=O)N2CCOCC2)c2ccccc21 | inconclusive [inhibitor, single point] |

— PubChem BioAssay AID504832 (National Center for Advancing Translational Sciences (NCATS), 2011)
